The record followed here is the RNAGym collection of RNA variant scans (doi:10.7554/elife.90254).

Read counts are not given, so values of variants with three or more changes are uncertain.

First the molecules themselves.
B1: OR4K15 (parent)
chain: GUUAACGGUCAUAGGCCAUGGAAACUAGGAGCACCAUUUCGCUGCCAGUGAAGAAAUGAACAAAGAAAAUCUGGGCCAGGCAGGCAUCAAAAGAAAUAGUCUUGCGCUCAACCAGAAAGUCUGUAAUCAUUUUAAGGGUA

Variants of B1 are the subject of the data set. Description: self-cleavage, relative activity (ratio to wild type); higher = more cleavage; in vitro, sequencing; the parent is a self-cleaving ribozyme.
Turning to GUUAACGGUCAUAGGCCAUGGGAACUAGGAGCACCAUUUCGCUGCCAGUGAAGAAAUGAACAAAGAGAAUCUGGGCCAGGCAGGCAUCAGAAGAAAUAGUCUUGCGCUCAACCAGAAAGUCUGUAAUCAUUUUAAGGGUA, the self-cleavage amounted to 0.62. Take GUUAACGGUCAUAGGCCAUGGGAACUAGGAGCACCAUUUCGCUGCCAGUGAAGAAAUGAACAAAGGAAAUCUGGGCCAGGCAGGCAUCAAAAGAAAUAGUCUUGCGCCCAACCAGAAAGUCUGUAAUCAUUUUAAGGGUA: the self-cleavage was determined as 0.02. As for GUUAACGGUCAUAGGCCAUGGGAACUAGGAGCACCAUUUCGCUGCCAGUGAAGAAAUGAACAGAGAAAAUCUGGGCCAGGCAGGCAUCAAAAGAAAUAGUCUUGCGCUCAACCAGGAAGUCUGUAAUCAUUUUAAGGGUA, the figure is 0.16.

With GUUAACGGUCAUAGGCCAUGGGAACUAGGAGCACCAUUUCGCUGCCAGUGAAGAAAUGAACAAGGAAAAUCUGGGCCAGGCAGGCAUCAGUAGAAACAGUCUUGCGCUCAACCAGAAAGUCUGUAAUCAUUUUAAGGGUA, the self-cleavage is 0.25. Regarding GUUAACGGUCAUAGGCCAUGGGAACUAGGAGCACCAUUUCGCUGCCAGUGAAGAAAUGAACAGAGAAAAUCUGGGCCAGGCAGGCAUCAAAAGAAAUAGUCCUGCGCUCAACCUGAAAGUCUGUAAUCAUUUUAAGGGUA, the self-cleavage worked out at 0.23. With GUUAACGGUCAUAGGCCAUGGGAACUAGGAGCACCAUUUCGCUGCCAGUGAAGAAAUGAACAAUGAAAGUCUGGGCCAGGCAGGCAUCAAAAGAAAUUGUCUUGCGCUCAACCAGAAAGUCUGUAAUCAUUUUAAGGGUA the figure was 1.37; with GUUAACGGUCAUAGGCCAUGGGAACUAGGAGCACCAUUUCGCUGCCAGUGAAGAAAUGAACAAAGGAAAUCUGGGCCAGGCAGGCAUCAAAAGAAAUAGUCUUGCGCUCAACCAGAAAGCCUGUAAUCACUUUAAGGGUA, 0.41. With GUUAACGGUCAUAGGCCAUGGGAACUAGGAGCACCAUUUCGCUGCCAGUGAAGAAAUGAACAAAGAGAAUCUGGGCCAGGCAGGCAUCAAAAGAAAUAGUCUUGCGCUCAACCAGAAAGUCAGUAAUCAUUUUAAGGGUA the figure was 1.75. In the case of GUUAACGGUCAUAGGCCAUGGGAACUAGGAGCACCAUUUCGCUGCCAGUGAAGAAAUGAACAAAGAAGAUCUGGGCCAGGCGGGCAUCAAAAGUAAUAGUCUUGCGCUCAACCAGAAAGUCUGUAAUCAUUUUAAGGGUU, the self-cleavage worked out at 0.96. As for GUUAACGGUCAUAGGCCAUGGGAACUAGGAGCACCAUUUCGCUGCCAGUGAAGAAAUGAACAGAGAAGAUCUGGGCCAGGCAGGCAUCAAAAGAAAUAGUCUUGCGCCCAACCAGAAAGUCUGUAAUCAUUUUAAGGGUA, the figure is 0.02; as for GUUAACGGUCAUAGGCCAUGGGAACUAGGAGCACCAUUUCGCUGCCAGUGAAGAAAUGAACAAAGAAAAUCUGGGCCUGGCAGGCAUCAAGAGAAAUAGUCUUGCGCUCAACCAGAAAGUCUGUAAUCAUUUUAAGGGUA, 0.12. On to GUUAACGGUCAUAGGCCAUGGGAACUAGGAGCACCAUUUCGCUGCCAGUGAAGAAAUGAACAAAGAAAUUCUGGGCCAGGCAGGCAUCAAAAGAAAUAGUCUAGCGCUCAACCAGAAAGGCUGUAAUCAGUUUAAGGGUA, for which the self-cleavage is 0.28. With GUUAACGGUCAUAGGCCAUGGGAACUAGGAGCACCAUUUCGCUGCCAGUGAAGAAAUGAACAAGGAAAAUCUGGGCCAGGCAGGCAUCAAAAGAAAUAGUCUUGCGCUCAACCAGAAAGUCUGUAAUCAUUGUAAGGGUA the figure was 1.75. As for GUUAACGGUCAUAGGCCAUGGGAACUAGGAGCACCAUUUCGCUGCCAGUGAAGAAAUGAACAAAGGAAAUCUGGGCCAGGCAGGCAUCAAAAGAAAUAGUCUUGCGCUCAACCAGAAAGUCUGUAAUCGUUUUAAGGGUA, the figure is 0.86; as for GUUAACGGUCAUAGGCCAUGGGAACUAGGAGCACCAUUUCGCUGCCAGUGAAGAAAUGAACAAAGGAAAUCUGGGCCAGGCAGGCAUCAAAAGGAAUAGUCUUGCGCUCAACCAGAAAGUCUGUAAUCAUUUUAAGGGUA, 1.54; as for GUUAACGGUCAUAGGCCAUGGGAACUAGGAGCACCAUUUCGCUGCCAGUGAAGAAAUGAACAAAGAAAGUCUGGGCCAGGCAGGCAUCAAAAGAAAUAGUCUUGCGCUCCACCAGAAAGUCUGUAAUCAUUUUAAGGGUA, 0.4. Regarding GUUAACGGUCAUAGGCCAUGGGAACUAGGAGCACCAUUUCGCUGCCAGUGAAGAAAUGAACAAGGAGAAUCUGGGCCAGGCAGGCAUCAAAAGAAAUAGUCUUGCGCUCAAUCAGAAAGUCUGUGAUCAUUUUAAGGGUA, the self-cleavage came to 0.

As for GUUAACGGUCAUAGGCCAUGGGAACUAGGAGCACCAUUUCGCUGCCAGUGAAGAAAUGAACAAAGAGAAUCUGGGCCAGGCAGGCAUCAAAAGAAAUAGUCUUGCGCUCGACCAGAAAGUCUGUAAUCAUUUUAAGGGUA, the self-cleavage was determined as 0.13. GUUAACGGUCAUAGGCCAUGGGAACUAGGAGCACCAUUUCGCUGCCAGUGAAGAAAUGAACAAGGAAAAUCUGGGCCAGGCAGGCAUCAAGAGAAAUAGUCUUGCGCUCAACCAGAAUGACUGUAGCCAUUUUAAGGGUA: the self-cleavage amounted to 0.34. As for GUUAACGGUCAUAGGCCAUGGGAACUAGGAGCACCAUUUCGCUGCCAGUGAAGAAAUGAACAAAGAAACCCUGGGCCAGGCAGGCAUCAAAAGAAAUAGUCUUGCGCUCAACCAGAAAGUCUGUAAUCAUUUUAAGGGUA, the figure is 0.47; as for GUUAACGGUCAUAGGCCAUGGGAACUAGGAGCACCAUUUCGCUGCCAGUGAAGAAAUGAACAUAGAAAAUCUGGGCCAGGCAGGCAUCUAAAGAAAUAGUCUUGCGCUCAACCAGAAAGUCUGUAAUCGUUUUAAGGGUA, 0.74.
